Results: publication PMC4336329 (PLoS ONE, 2015)
The whole screen tested about 310,000 compounds, of which about 14,000 (4.5%) showed an effect of 50% or more. The effect is printed as a negative number. The list shows a part of the results.

These molecules were tested against human ether-à-go-go-related gene (hERG) potassium channel (human, UniProt Q12809) (assay: primary screen, population patch clamp on CHO cells stably expressing hERG).
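Also: peak tail current of the secondary pulse compared with the same well before compound.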

Sequence of human ether-à-go-go-related gene (hERG) potassium channel (Q12809 whole entry, looked up): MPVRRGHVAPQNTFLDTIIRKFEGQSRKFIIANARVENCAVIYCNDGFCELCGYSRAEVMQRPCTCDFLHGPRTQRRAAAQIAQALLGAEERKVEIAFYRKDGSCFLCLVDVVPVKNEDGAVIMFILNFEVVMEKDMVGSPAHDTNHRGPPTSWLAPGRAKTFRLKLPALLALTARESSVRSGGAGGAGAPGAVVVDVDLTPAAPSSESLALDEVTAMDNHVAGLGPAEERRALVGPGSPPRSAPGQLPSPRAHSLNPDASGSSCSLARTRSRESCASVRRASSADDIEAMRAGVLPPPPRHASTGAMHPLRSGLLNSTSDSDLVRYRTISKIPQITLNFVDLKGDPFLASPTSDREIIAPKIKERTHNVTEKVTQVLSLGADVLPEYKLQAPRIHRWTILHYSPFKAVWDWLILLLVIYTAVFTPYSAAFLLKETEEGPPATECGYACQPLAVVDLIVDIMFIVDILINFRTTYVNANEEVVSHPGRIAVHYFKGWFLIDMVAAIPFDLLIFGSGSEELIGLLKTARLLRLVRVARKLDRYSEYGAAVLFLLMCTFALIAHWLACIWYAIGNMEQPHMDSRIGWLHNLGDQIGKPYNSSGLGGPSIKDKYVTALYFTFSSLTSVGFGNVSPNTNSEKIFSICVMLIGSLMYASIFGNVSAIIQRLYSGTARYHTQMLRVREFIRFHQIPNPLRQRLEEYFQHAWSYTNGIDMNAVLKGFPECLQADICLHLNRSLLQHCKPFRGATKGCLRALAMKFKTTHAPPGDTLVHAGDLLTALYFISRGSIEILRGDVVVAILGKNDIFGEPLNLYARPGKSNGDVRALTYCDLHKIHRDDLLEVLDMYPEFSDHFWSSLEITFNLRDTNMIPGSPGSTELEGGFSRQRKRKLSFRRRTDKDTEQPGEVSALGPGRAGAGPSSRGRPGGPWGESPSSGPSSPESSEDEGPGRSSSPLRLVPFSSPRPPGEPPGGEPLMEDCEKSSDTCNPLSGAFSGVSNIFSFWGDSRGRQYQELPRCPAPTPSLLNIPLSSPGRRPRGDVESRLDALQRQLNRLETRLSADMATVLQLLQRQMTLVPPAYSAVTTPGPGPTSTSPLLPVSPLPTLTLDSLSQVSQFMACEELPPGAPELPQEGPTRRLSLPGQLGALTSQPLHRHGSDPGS

| SMILES | hERG current change (%, negative = inhibition) at 10uM [%] |
| --- | --- |
| Clc1ccc(Cn2cccc2C2=NCCO2)cc1 | 4.69 |
| O=C(Nc1ccc(Cl)cn1)c1cccc2ccccc12 | 6.69 |
| COc1ccccc1N1CCN(C(CNS(C)(=O)=O)c2cccnc2)CC1 (stereo not drawn) | 23.2 |
| Cc1[nH]c(=O)c(C#N)c2c1COC(C)(C)C2 | 14.9 |
| Cc1ccc(CN2CCN(Cc3c(C)nn(-c4ccc(F)cc4)c3C)CC2CCO)o1 (stereo not drawn) | -34.6 |
| CCOc1ccc(S(=O)(=O)N(C)c2ccc(OCC(=O)NCc3ccco3)cc2)cc1 | -26.3 |
| O=C1CCN(C(=O)CCCn2c(=O)oc3ccccc32)CC1 | 17 |
| O=C(CSc1ncccn1)N/N=C/c1ccccc1[N+](=O)[O-] | 11.3 |
| Cc1ccc(SCc2cc(-c3ccc(Cl)cc3)on2)cc1 | 14.6 |
| Cc1noc(NS(=O)(=O)c2ccc(N/C=C\C(=O)c3ccc(Br)cc3)cc2)c1C | -9.95 |
| COc1ccc(CCc2nc(-c3cccs3)no2)cc1 | -4.11 |
| CC(C)(C)c1cc(CCC(=O)Nc2ccncc2)cc(C(C)(C)C)c1O | -16.6 |
| O=S(=O)(c1cccs1)N1CCC2(CC1)OCCN2S(=O)(=O)c1ccccc1 | -10.2 |
| COc1ccc(C(=O)c2ccccc2)cc1Br | -11.8 |
| O=[N+]([O-])c1ccc2c(c1)ncn2-c1ccccc1 | -21.6 |
| O=C(COC(=O)c1ccccn1)Nc1nccs1 | 10.3 |
| O=C(C[n+]1ccc(Cc2ccccc2)cc1)Nc1ccccc1.[Cl-] | 17.1 |
| O=C(CN1CCN(C(=O)c2cccs2)CC1)Nc1ccc(Br)cc1 | -71.8 |
| CCCCCC(=O)Nc1nc(C)c(-c2csc(Nc3cc(OC)ccc3OC)n2)s1 | 6.78 |
| O=C1NC2=C(C(=O)CCC2)C(c2ccccc2Cl)N1 (stereo not drawn) | 26.2 |
| COCCn1ccc2c(OCC(=O)Nc3ccccc3OC)cccc2c1=O | -17.4 |
| CCC(=O)N(CCc1ccccc1)Cc1cc2cc(C)ccc2[nH]c1=O | 1.44 |
| CCC(C)NC(=O)CN1C(=O)NC2(CCc3ccccc3C2)C1=O (stereo not drawn) | 7.05 |

| SMILES | hERG current change (%, negative = inhibition) at 10uM [%] |
| --- | --- |
| Cc1ccc(CN2CCN(Cc3cn(C)nc3-c3ccccc3)CC2CCO)o1 (stereo not drawn) | 1.84 |
| CC(C)(C)c1cc(-c2n[nH]c(=S)n2-c2ccccc2F)n[nH]1 | 18.3 |
| Oc1ccccc1-[n+]1c(-c2ccccc2)cc(-c2ccccc2)cc1-c1ccccc1.[O-][Cl+3]([O-])([O-])[O-] | -71.2 |
| O=C(C[n+]1ccccc1)N/N=C/c1cccc(Cl)c1Cl.[Cl-] | 13.4 |
| NC(Cc1c[nH]c2ccccc12)C(=O)NCc1ccco1 (stereo not drawn) | 13.5 |
| CC(=O)NC1(C(Cl)(Cl)Cl)Oc2ccccc2O1 | 18.7 |
| NC(=S)Nc1cccc2cc3ccccc3cc12 | 2.73 |
| COc1ccc(-n2nc3c(=O)[nH][nH]c3cc2=O)cc1 | 16.5 |
| On1nnc2ccc3ccccc3c21 | 18.2 |
| COc1cc(CN(C(=S)NCC(=O)NC2CCCC2)C2CCCC2)cc(OC)c1OC | -13.9 |
| COC(=O)C1=C(c2ccc(OCc3ccccc3)cc2)C[C@@H]2CC[C@H]1N2C(=O)NCc1ccccc1 | 8.42 |
| Cn1cc(C(=O)c2cccc(Cl)c2Cl)cc1C#N | -7.11 |
| CC1CC(C(F)(F)F)n2nc(C(=O)O)cc2N1 (stereo not drawn) | -7.24 |
| Cn1c(=O)c2c(nc(N3CCN(c4ccccn4)CC3)n2Cc2ccccc2Cl)n(C)c1=O | -16.1 |
| O=C(CSc1nnc(CCc2ccccc2)n1-c1ccc(Cl)cc1)c1ccccc1 | -8.98 |
| O=C(CN(Cc1ccccc1F)S(=O)(=O)c1ccc(Cl)cc1)NCC1CCCO1 (stereo not drawn) | -30.4 |
| Cc1ccc(CN2CCN(Cc3cccn3-c3nccs3)CC2CCO)cc1 (stereo not drawn) | -77.3 |
| COc1ccc(-c2nnc(SCC(=O)Nc3ccc(C)cc3)n2C)cc1 | 8.19 |
| CCOC(=O)N1CCN(C(=O)CNCc2cccs2)CC1.O=C(O)C(=O)O | 4.34 |
| Cc1ccccc1NC(=S)N/N=C/c1ccc(O)cc1O | 14.1 |
| COC(=O)C1=C(c2cccc(OC)c2OC)C[C@@H]2CC[C@H]1N2C(=O)NCCCOC(C)C | 3.16 |
| COc1ccc(Cl)cc1N1C(=O)C2CCCN2C1c1sccc1C (stereo not drawn) | 3.88 |
| CCCCSc1ccc2nc(-c3ccc(C#N)cc3)cn2c1 | -15 |

| SMILES | hERG current change (%, negative = inhibition) at 10uM [%] |
| --- | --- |
| Cc1ccc2oc(C(=O)NCc3ccc4c(c3)OCO4)c(C)c2c1 | 2.22 |
| CCc1cccc(C)c1NC(=O)N(C)C1CCCCC1 | 6.47 |
| CC(=O)OC(C(=O)N1CCOCC1)c1c(F)cccc1F (stereo not drawn) | 16.1 |
| CCN1CCN(c2cc(C)c3cc(NC(=S)NCCCN4CCc5ccccc5C4)ccc3n2)CC1 | -9.67 |
| COc1cc2c(cc1OC)C(C1C(=O)CC(C)(C)CC1=O)N(C(=O)CCl)CC2 (stereo not drawn) | -2.65 |
| CC(C)c1ccc(NC(=O)CN(Cc2ccccc2)S(C)(=O)=O)cc1 | -29 |
| O=C(C1CCN(C2CCN(C/C=C/c3ccccc3)CC2)CC1)N1CCOCC1 | -53.4 |
| O=C(Nc1ccc(S(=O)(=O)N2CCOCC2)cc1)c1ccccc1 | -1.1 |
| O=C(O)C(C(=O)Oc1ccccc1)C(C(=O)O)C(=O)Oc1ccccc1 (stereo not drawn) | 45 |
| CN1CCN(C(=S)c2ccc([N+](=O)[O-])cc2)CC1 | 9.47 |
| O=C(CSc1n[nH]c(=O)n1C1CC1)Nc1ccccc1 | 17.3 |
| CCOC(=O)C(C)Sc1nc2c(cnn2-c2ccc(C)cc2)c(=O)[nH]1 (stereo not drawn) | 10.9 |
| CCC(NC(=O)NC1=NCCS1)(C(F)(F)F)C(F)(F)F | 6.68 |
| COC(=O)c1ccc(N2CCN(c3ccccc3)CC2)c(N)c1 | 10.8 |
| O=C(COc1ccc(Br)cc1Cl)N1CCN(c2ccccn2)CC1 | -27.2 |
| O=C(NCCC1CCCCN1S(=O)(=O)c1ccccc1)C(=O)Nc1ccccc1F (stereo not drawn) | 5.77 |
| N#Cc1sc(NCc2cccc(Cl)c2)nc1Cl | 4.01 |
| O=C(Nc1ccc(NC(=O)c2cc([N+](=O)[O-])ccc2N2CCOCC2)cc1)c1cccs1 | -23 |
| Cn1nc(C(F)(F)F)c(C(=O)Nc2ccc(F)cc2)c1Cl | 11.1 |
| CCn1ncc(/C=C/C(=O)c2ccccc2)c1C | 5.83 |
| CN(C)N1C(N)=C(C#N)C(c2cccs2)C2=C1CC(C)(C)CC2=O (stereo not drawn) | 2.14 |
| Cc1cc(C)cc(C(=O)N(c2ccccn2)C(C)c2ccco2)c1 (stereo not drawn) | 14.1 |
| Cn1nc(C(=O)OCCN2C(=O)c3ccccc3C2=O)c2ccccc2c1=O | -11.5 |

| SMILES | hERG current change (%, negative = inhibition) at 10uM [%] |
| --- | --- |
| CN(CCC1CCOCC1)Cc1nc(Cc2ccccc2F)no1 | 9.87 |
| CCOC(=O)c1nn(-c2cccc(C)c2)cc1C(=O)c1ccccc1 | -25.5 |
| O=C(N/N=C/c1cccc(F)c1)c1c(O)c2ccccc2[nH]c1=O | 10.3 |
| Cc1c(NC(=O)C(C)NCC2CCCO2)c(=O)n(-c2ccccc2)n1C (stereo not drawn) | 9.75 |
| COc1ccc(NC2=Nc3cccc4cccc2c34)cc1OC | 4.7 |
| Cc1cccc(NC(=O)C2CCC(CNC(=O)[C@@H]3Cc4ccccc4CN3)CC2)c1 (stereo partly drawn) | -2.36 |
| CCCCC(=O)NC(=S)Nc1ccc(S(=O)(=O)N2CCCC2)cc1 | -2.83 |
| CCCCOc1ccc(S(=O)(=O)N2CCN(c3ccc(N4CCN(CC)CC4)nn3)CC2)cc1 | 14.5 |
| CS(=O)(=O)N(CC(=O)Nc1ccccc1-c1ccccc1)c1ccccc1 | -0.135 |
| O=C(O)CC/C(=N\Nc1ccc([N+](=O)[O-])cc1)c1ccccc1 | 13 |
| COc1ccc(NC(=O)c2cc(-c3ccco3)nc3ccccc23)cc1 | 4.77 |
| Cc1cc(C)nc(/N=C(\N)Nc2ccccc2-c2ccccc2)n1 | -43.2 |
| COc1ccccc1C(=O)NCCC(=O)Nc1ccc(S(=O)(=O)N2CCC(C)CC2)cc1 | -15.2 |
| CCCCN(CC)C(=O)c1n[nH]c(=O)c2ccccc12 | 2.92 |
| COc1ccc(NS(=O)(=O)c2cccc(C(=O)NCC3(N4CCOCC4)CCCCC3)c2)cc1 | -36.7 |
| CCc1ccccc1OCC(=O)OCC(=O)c1c(N)n(C)c(=O)n(C)c1=O | -53.6 |
| CCOc1ccc(C(=O)NCC(=O)Nc2ncccc2C)cc1OCC | 18 |
| COCc1cc(C)nc(N2CCOCC2)c1C#N | 8.82 |
| Cc1cccc2sc(NC(=O)CN(C)S(=O)(=O)c3cccs3)nc12 | -24.6 |
| Cn1nc(C(=O)NNC(=O)c2ccc(Cl)c(S(N)(=O)=O)c2)c2ccccc2c1=O | 3.97 |
| COc1cc2c(C(=O)N3CCN(Cc4ccc5c(c4)OCO5)CC3)cn(C)c(=O)c2cc1OC | -21.4 |
